Source: publication PMC4336329 (PLoS ONE, 2015)
Out of some 310,000 compounds screened, about 14,000 (4.5%) showed an effect of 50% or more. The effect is printed as a negative number. The list shows a part of the results.

molecular target: human ether-à-go-go-related gene (hERG) potassium channel (human, UniProt Q12809); assay: primary screen, population patch clamp on CHO cells stably expressing hERG
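Also: peak tail current of the secondary pulse compared with the same well before compound.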

Sequence of human ether-à-go-go-related gene (hERG) potassium channel (Q12809 whole entry, looked up): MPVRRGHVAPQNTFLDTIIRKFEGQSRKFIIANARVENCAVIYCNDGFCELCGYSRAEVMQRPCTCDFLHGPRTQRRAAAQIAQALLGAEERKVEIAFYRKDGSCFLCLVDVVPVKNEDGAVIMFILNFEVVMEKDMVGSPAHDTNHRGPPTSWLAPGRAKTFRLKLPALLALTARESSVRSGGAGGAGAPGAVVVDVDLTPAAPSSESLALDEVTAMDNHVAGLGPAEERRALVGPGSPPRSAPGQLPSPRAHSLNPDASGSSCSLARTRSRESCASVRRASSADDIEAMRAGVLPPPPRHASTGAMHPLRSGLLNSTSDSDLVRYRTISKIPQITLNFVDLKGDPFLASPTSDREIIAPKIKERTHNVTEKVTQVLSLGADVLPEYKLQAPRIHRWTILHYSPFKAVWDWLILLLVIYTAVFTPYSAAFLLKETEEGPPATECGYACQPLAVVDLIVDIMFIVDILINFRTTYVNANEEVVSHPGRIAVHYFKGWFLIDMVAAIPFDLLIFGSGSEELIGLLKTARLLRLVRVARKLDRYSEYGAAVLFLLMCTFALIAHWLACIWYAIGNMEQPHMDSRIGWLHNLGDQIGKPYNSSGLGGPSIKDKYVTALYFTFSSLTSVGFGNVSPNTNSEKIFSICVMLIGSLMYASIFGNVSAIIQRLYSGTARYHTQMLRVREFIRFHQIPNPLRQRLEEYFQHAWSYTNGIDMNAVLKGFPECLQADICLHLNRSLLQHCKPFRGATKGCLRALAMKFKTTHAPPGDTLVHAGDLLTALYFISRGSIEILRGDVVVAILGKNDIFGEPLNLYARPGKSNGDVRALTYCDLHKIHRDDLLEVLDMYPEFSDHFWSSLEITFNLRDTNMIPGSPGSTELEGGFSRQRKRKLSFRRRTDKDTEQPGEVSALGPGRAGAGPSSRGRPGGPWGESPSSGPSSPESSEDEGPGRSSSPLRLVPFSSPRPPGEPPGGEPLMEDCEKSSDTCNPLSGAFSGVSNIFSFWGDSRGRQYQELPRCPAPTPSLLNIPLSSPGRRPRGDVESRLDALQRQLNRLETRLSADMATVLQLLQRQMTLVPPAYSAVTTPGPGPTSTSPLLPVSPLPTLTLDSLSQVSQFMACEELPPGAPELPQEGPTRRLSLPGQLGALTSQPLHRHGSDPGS

| Compound | hERG current change (%, negative = inhibition) at 10uM |
| --- | --- |
| CN1CCN(C(=S)c2cn(Cc3ccccc3)c3ccccc23)CC1 | 26.7% |
| COc1ccc(Cl)cc1NC(=O)CSc1nc(-c2ccccc2)cc(=O)[nH]1 | 1.35% |
| COc1ccc(C(=O)N[C@H](C(=O)Nc2ccc(S(=O)(=O)N3CCOCC3)cc2)C(C)C)cc1 | -18% |
| O=C(NC1CCCCC1)N1CCN(C(=O)c2ccco2)CC1 | -6.24% |
| CCOC(=O)c1ccc(Nc2ncccc2[N+](=O)[O-])cc1 | 9.89% |
| CCCCN(CC(=O)NC(C)(C)C)C(=O)C(=O)Nc1ccc2c(c1)OCCO2 | -0.704% |
| CC1CN(C(=O)c2ccc(COc3ccc4ccccc4c3)o2)CC(C)O1 (stereo not shown) | -10.3% |
| CCCCCCCCCCCCS(=O)(=O)CCC(=O)O | 11.1% |
| Cc1cccc2c1[nH]c1nc(N/N=C\c3ccco3)nnc12 | 15.5% |
| Cc1ccc(-c2nnnn2C2C/C(=N\NC(N)=S)C3OCC2O3)cc1 (stereo not shown) | 13.4% |
| CCOC(=O)C1=C(O)/C(=C\c2ccc(OC)c(OC)c2)N=C1C | 10.5% |
| O=c1ccc2cc(S(=O)(=O)N3CCOCC3)ccc2o1 | 4.83% |
| COc1ccc(OCC(=O)N/N=C/c2cccc3cccnc23)cc1 | 12.8% |
| O=C(O)C(=O)O.O=C(c1ccc([N+](=O)[O-])cc1)N1CCN(Cc2ccccc2[N+](=O)[O-])CC1 | -75% |
| COc1cc(NC(=O)CN2C(=O)CN(C)C2=O)c(C)cc1[N+](=O)[O-] | 17.6% |
| Cc1nn(-c2ccccc2)c2sc(C(=O)OCn3nnc4ccccc4c3=O)cc12 | -1.28% |
| CC(OC(=O)c1cccnc1SCc1cc(=O)n2ccccc2n1)c1ccccn1 (stereo not shown) | -13.5% |
| COc1cccc(-n2c(C)nc3cc(C(=O)O)ccc32)c1 | -7.63% |
| CCOC(=O)c1c(NC(C)=O)sc(C(=O)NC2CCCC2)c1C | 23.7% |
| O=C(O)C1C(c2ccccc2)C(C(=O)Oc2ccc(O)cc2)C1c1ccccc1 (stereo not shown) | -2.67% |
| CN(C(=O)c1ccc(S(=O)(=O)N2CCCCC2)cc1)C1CCS(=O)(=O)C1 (stereo not shown) | -2.86% |
| CN(C(=O)c1cccs1)c1ccccc1C(=O)O | 5.89% |

| Compound | hERG current change (%, negative = inhibition) at 10uM |
| --- | --- |
| C=CCOc1cccc(C2C(C(=O)c3ccc(C)o3)=C(O)C(=O)N2CCCn2ccnc2)c1 (stereo not shown) | 9.13% |
| Cc1cc(C)n(-c2nc3c(c(=O)[nH]c(=O)n3C)n2CC(C)C)n1 | 4.52% |
| COc1ccc(N(CC(=O)NC2CC3CCC2C3)S(=O)(=O)c2ccc(C)cc2)cc1 (stereo not shown) | -22% |
| O=C(Cn1cnc2cc([N+](=O)[O-])ccc2c1=O)NC1CCS(=O)(=O)C1 (stereo not shown) | 41.9% |
| COCCCn1c(SCC(=O)Nc2nnc(C)s2)nnc1-c1ccoc1C | 4.33% |
| COc1ccc(N(CC(=O)NCCc2ccc(OC)c(OC)c2)S(=O)(=O)c2ccc(OC)c(OC)c2)cc1 | 5.38% |
| CCOc1ccc(-n2c(SCC(=O)NCc3ccco3)nc3c(c2=O)SCC3)cc1 | -0.971% |
| COc1c(S(=O)(=O)N2CCCCC2)ccc2c(S(=O)(=O)N3CCCCC3)cccc12 | -17.5% |
| O=C(C1=C[C@H](c2coc3ccccc3c2=O)C[C@H](OCCCCO)O1)N1CCN(Cc2ccc3c(c2)OCO3)CC1 | -64.4% |
| COCc1cc(C)nc(NCCc2ccccc2)c1C#N | -7.77% |
| CC(=O)Nc1ccc(S(=O)(=O)NCc2ccc(C(=O)NC(C)c3ccccc3)cc2)cc1 (stereo not shown) | -12.2% |
| O=C(NC(=S)N1C[C@H]2C[C@H](C1)c1cccc(=O)n1C2)c1ccc(Cl)cc1 | -8.28% |
| O=C(N/N=C/c1cccnc1)c1[nH]ncc1Br | 39.4% |
| CCN(C(=O)N(CC)c1ccccc1)c1ccccc1 | 13.1% |
| CCOc1ccc(-c2nc(N)ncc2Oc2cccc(OC)c2)c(O)c1 | 6.7% |
| CCOP(=O)(c1ccccc1)C(O)c1ccc(F)cc1 (stereo not shown) | 17.9% |
| Cc1c(C(=O)NCc2cccnc2)oc2ccc(S(=O)(=O)N3CCC4(CC3)OCCO4)cc12 | -3.87% |
| CCC1C(=O)NCCN1C(=O)c1cc(COc2cc(C)ccc2C)on1 (stereo not shown) | -43.7% |
| CCOC(=O)CSc1nnc(-c2cccnc2)n1Cc1ccccc1 | -14.5% |
| CCOc1ccc(-c2[nH]ncc2-c2ccc(Cl)cc2)c(O)c1 | 0.454% |
| Cc1ccc2[nH]c(=O)c(CC=C(Cl)Cl)c(C)c2c1 | 9.84% |
